# Results reported in PubChem BioAssay AID485294 (National Center for Advancing Translational Sciences (NCATS), 2010).
# About 150 (0.041%) of roughly 370,000 compounds were called active. Inconclusive results, whose numbers are uncertain, are shown with a selection of clear calls. The call rests on the fitted dose curve; in most records, active means well fitted inhibition curve with a large enough effect; inconclusive means small, poorly fitted or top-dose-only effect; inactive means flat fitted curve, though single readings scatter. No potency is given beside an inconclusive call; the fits are too rough.
# Biological target: Beta-lactamase (Escherichia coli (strain K12)) (UniProt P00811)
# Chain of UniProt P00811 (P00811 whole entry, looked up): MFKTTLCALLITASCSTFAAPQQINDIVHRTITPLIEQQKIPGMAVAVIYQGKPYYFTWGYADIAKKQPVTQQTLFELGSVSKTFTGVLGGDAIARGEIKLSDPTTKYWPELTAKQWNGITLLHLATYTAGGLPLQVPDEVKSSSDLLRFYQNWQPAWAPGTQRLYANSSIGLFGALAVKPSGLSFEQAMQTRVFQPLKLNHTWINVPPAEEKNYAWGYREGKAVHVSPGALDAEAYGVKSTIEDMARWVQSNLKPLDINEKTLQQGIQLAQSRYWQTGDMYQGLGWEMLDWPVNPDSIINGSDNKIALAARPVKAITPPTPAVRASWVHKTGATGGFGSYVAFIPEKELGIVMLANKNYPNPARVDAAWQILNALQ
# Test: qHTS Inhibitors of AmpC Beta-Lactamase (assay with detergent); further: nearly all actives have a fitted effect of over 25% in size
# Details: AmpC hydrolysis of nitrocefin, absorbance 480 nm, 0.01% Triton; series mostly up to 114 µM
# In short: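 20 mM phosphate pH 7.0 + 0.01% (detergent screen) or 0.0001% Triton X-100; 5.3 nM AmpC reagent; cpd preinc 15 min RT; nitrocefin (800 uM stock) to start; A480 q20 s × 4 min; Activity was normalised to no-enzyme and no-compound control wells.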
# Potency means the concentration at half of the fitted maximal effect; tags describe the fitted curve by direction and shape.
row,Compound,Potency
1,COC(=O)NCC(c1cccnc1)N1CCN(c2ccccc2)CC1 (centres undefined),"inconclusive [inhibitor, full curve, poor fit]"
2,CCOC(=O)N1CCC(NC(=O)c2cc(COc3c(C)cccc3C)on2)CC1,inactive
3,O=C(NC(c1cccnc1)C(F)(F)F)c1cc(COc2ccc3c(c2)CCCC3)on1 (centres undefined),inactive
4,CCC(C)Sc1oc(-c2ccco2)nc1S(=O)(=O)c1ccc(C)cc1 (centres undefined),inactive
5,Cc1ccc(NC(=O)CCC(=O)NNC(=O)c2ccco2)cc1C,"inconclusive [inhibitor, full curve, poor fit]"
6,Cc1nc(N)nc(N)c1/C=C/C(C)(C)c1ccc(Cl)cc1,inactive
7,CCC(=NCC1CCCO1)c1c(O)n(-c2ccc(Cl)cc2)c(=O)[nH]c1=O (centres undefined),"inconclusive [inhibitor, full curve, poor fit]"
8,O=C(COc1ccc(Br)cc1)NCc1ccccn1,"inconclusive [inhibitor, full curve, poor fit]"
9,Cc1ccc2cc(CN(Cc3cccs3)C(=O)c3ccco3)c3nnnn3c2c1C,"inconclusive [inhibitor, partial curve, poor fit]"
10,CCOC(=O)CN(C(=O)CSc1nnc(-c2ccc(OC)c(OC)c2)o1)c1ccc(F)cc1,"inconclusive [inhibitor, full curve, poor fit]"
11,COc1cc(S(=O)(=O)N2CCCCC2)ccc1NC(=O)c1ccccc1Cl,"inconclusive [inhibitor, partial curve, poor fit]"
12,Cc1cccc(N2CCN(S(=O)(=O)c3ccc(-c4cc(C(F)(F)F)on4)s3)CC2)c1C,inactive
13,COc1cc2c(cc1OC)CN(C1CC(=O)N(c3c(C)cccc3C)C1=O)CC2 (centres undefined),inactive
14,Nn1c(COc2ccc(Cl)cc2)nc2ccccc2c1=O,"inconclusive [inhibitor, partial curve]"
15,CCCOc1ccc(C2C(C(=O)c3ccco3)=C(O)C(=O)N2CCN2CCOCC2)cc1OC (centres undefined),inactive
16,CCOc1cc(S(=O)(=O)NCc2ccncc2)ccc1Cl,"inconclusive [inhibitor, full curve, poor fit]"
17,NC(N)=NS(=O)(=O)c1ccc(NC(=S)NC(=O)/C=C/c2ccco2)cc1,"inconclusive [inhibitor, single point]"
18,CCOC(=O)Cn1c(=O)oc2cc(S(=O)(=O)NCc3cccs3)ccc21,"inconclusive [inhibitor, full curve, poor fit]"
19,Cc1ccccc1N1C(=O)C2C3C=CC(C2C1=O)N(C)C3=O (centres undefined),"inconclusive [inhibitor, single point]"
20,Cc1ccc(C(=O)NCC(=O)N(C)Cc2ccc(Cl)cc2Cl)s1,"inconclusive [inhibitor, full curve, poor fit]"
21,O=[N+]([O-])c1cccc(C(=Nc2ccc(Cl)cc2)NO)c1,"inconclusive [inhibitor, partial curve]"
22,C/C=C/C=C\C(=O)Nc1cccc(C2=NOC3(C2)C[C@@H](C(N)=O)N(C(=O)c2cc([N+](=O)[O-])cc([N+](=O)[O-])c2C)C3)c1 (some centres undefined),inactive
23,COc1cc(-c2nc(-c3ccccc3)c(-c3cccs3)[nH]2)cc(OC)c1OC,inactive

row,Compound,Potency
1,CN(C)CCCN1C(=O)CSC1c1ccccc1 (centres undefined),"inconclusive [inhibitor, full curve, poor fit]"
2,CC(/C=C/c1ccccc1)=N\NC(=O)c1ccc(Br)cc1,inactive
3,COC(=O)C1CCN(C(=O)c2sc3nc(-c4ccccc4)cn3c2C)CC1,"inconclusive [inhibitor, full curve, poor fit]"
4,CN(C)/C=N/c1c(C#N)cnn1-c1ncnc2sc(-c3ccccc3)cc12,inactive
5,COc1ccccc1NC(=O)c1sc2nc(C)c(C(=O)Nc3ccc(C)cc3C)c(-c3cccs3)c2c1N,inactive
6,Cc1cc(C)nc(NC(=O)c2ccc(Br)cc2)n1,inactive
7,COCCCNC(=O)c1c(N)n(/N=C/c2cccs2)c2nc3ccccc3nc12,"inconclusive [inhibitor, full curve]"
8,Cc1ccc(S(=O)(=O)n2nc(OC(=O)c3cccc(F)c3)cc2N)cc1,inactive
9,Cc1nn(C(C)(C)C)c(N)c1-c1ccccc1,inactive
10,COc1cc(/C=N/NC(=S)Nc2cccc(S(=O)(=O)N(C)C)c2)cc(OC)c1O,"inconclusive [inhibitor, partial curve]"
11,C=C(C)Cn1c(NCCC)nc2c1c(=O)n(C)c(=O)n2C,"inconclusive [inhibitor, full curve]"
12,COc1cccc(NC(=O)Nc2ccc3nc(C)c(C)nc3c2)c1,"inconclusive [inhibitor, full curve]"
13,CCC1c2ccc(C)n2CCN1C(=O)Nc1ccccc1C(=O)OC (centres undefined),inactive
14,COc1cccc(C(=O)Nc2ccc3c(C)cc(=O)oc3c2)c1,"inconclusive [inhibitor, full curve, poor fit]"
15,O=C(CCc1nnc(-c2ccccc2)o1)NCc1c(F)cccc1F,inactive
16,O=C(CN1CCN(C(=O)c2ccco2)CC1)Nc1ccc(F)cc1F,inactive
17,CCOCCn1c(SCc2c(F)cccc2Cl)nc2c1c(=O)[nH]c(=O)n2C,"inconclusive [inhibitor, full curve, poor fit]"
18,CCN(CC)S(=O)(=O)c1ccc(Cl)c(C(=O)Nc2ccc(Cl)cc2[N+](=O)[O-])c1,"inconclusive [inhibitor, full curve, poor fit]"
19,CC(CNC(=O)CCc1nnc2ccc(N3CCC4(CC3)OCCO4)nn12)c1ccccc1 (centres undefined),inactive
20,CCOC(=O)/C(C#N)=C\C=C1C=CN(C)C=C1,"inconclusive [inhibitor, full curve, poor fit]"
21,Cc1cccc(Nc2nnc(SCC3CCCCO3)s2)c1 (centres undefined),"inconclusive [inhibitor, single point]"
22,COc1cc(C=O)ccc1OCc1ccccc1Br,"inconclusive [inhibitor, full curve]"
23,CCC/C(=N\NC(=O)CCC(=O)NCc1ccccc1)c1ccccc1,"inconclusive [inhibitor, full curve]"

row,Compound,Potency
1,CN(C)/N=C/c1ccc(P(c2ccc(/C=N/N(C)C)o2)c2ccc(/C=N/N(C)C)o2)o1,"inconclusive [inhibitor, partial curve]"
2,COc1cccc(/C=N/NC(=O)c2[nH]c(C)c(C(=O)N/N=C/c3cccc(OC)c3)c2C)c1,"inconclusive [inhibitor, full curve, poor fit]"
3,COc1ccc(CC(=O)Oc2ccc(C)cc2C)cc1,"inconclusive [inhibitor, single point]"
4,Cc1csc(CNc2ncnc3ccc(-c4ccccc4Cl)cc23)c1,"inconclusive [inhibitor, partial curve]"
5,c1ccc(Cc2nnc3sc(-c4ccc5c(c4)OCCO5)nn23)cc1,"inconclusive [inhibitor, full curve, poor fit]"
6,Cc1nc(N)sc1N=Nc1ccc(F)cc1,"inconclusive [inhibitor, full curve, poor fit]"
7,COC(=O)c1c(C(=O)OC)c2ccccn2c1C(=O)c1ccccc1,"inconclusive [inhibitor, partial curve]"
8,CCOC(=O)c1ccc(N2C(=O)c3n[nH]c(-c4ccco4)c3C2c2ccc(O)c(OCC)c2)cc1 (centres undefined),inactive
9,Cc1noc(NS(=O)(=O)c2ccc(NC(=O)CSc3ncccn3)cc2)c1C,"inconclusive [inhibitor, full curve, poor fit]"
10,O=C(/C=C/c1ccccc1Cl)NCc1ccco1,inactive
11,C=CCn1c(C)cc(C(=O)COc2ccc(C)nc2[N+](=O)[O-])c1C,inactive
12,COc1ccc(C2(CNC(C)=O)CCOCC2)cc1OC,"inconclusive [inhibitor, partial curve, poor fit]"
13,Cc1cccc(-n2c(Cc3ccccc3)nnc2SCc2nc(-c3cccs3)no2)c1,inactive
14,C#CCN(CC=C)C(=O)c1ccc2nc(C3CCCCC3)oc2c1,"inconclusive [inhibitor, partial curve]"
15,Cc1nc(NC(=O)c2cc3ccccc3o2)ccc1Br,"inconclusive [inhibitor, full curve, poor fit]"
16,Cc1cccc2cc(C(c3nnnn3CC3CCCO3)N3CCOCC3)c(=O)[nH]c12 (centres undefined),"inconclusive [inhibitor, full curve, poor fit]"
17,CC1(C)Cc2cccc(OCC(=O)Nc3ccc(S(N)(=O)=O)cc3)c2O1,"inconclusive [inhibitor, full curve, poor fit]"
18,Cc1ccc(C(=O)CSc2cc(C)[nH]c(=O)n2)cc1,"inconclusive [inhibitor, partial curve]"
19,CCOC(=O)c1c(NC(=O)c2ccc(S(=O)(=O)N3CCC(C)CC3)cc2)sc2c1CCN(CC)C2,inactive
20,COc1ccc(C(=O)Nc2nccs2)cc1,"inconclusive [inhibitor, full curve, poor fit]"
21,CC(OC(=O)c1ccncc1)C(=O)NC1CCCC1 (centres undefined),"inconclusive [inhibitor, partial curve, poor fit]"
22,COc1ccc(OC)c(C(c2nnnn2CCc2ccccc2)N2CCN(c3ccccc3)CC2)c1 (centres undefined),"inconclusive [inhibitor, partial curve, poor fit]"
23,COC(=O)C1CCN(S(=O)(=O)Cc2ccccc2Cl)CC1,"inconclusive [inhibitor, partial curve, poor fit]"
